{
  "source": "patent US20140004122A1",
  "about": "“METHODS FOR TREATING OR PREVENTING CHOLESTEROL RELATED DISORDERS” (AMGEN INC., priority 2011, published 2014)",
  "molecules": {"B1": {"name": "11F1: anti-PCSK9 antibody; light/heavy variable region SEQ ID NO 465/463 (antibody, listed as Homo sapiens, V domains shown)", "VH": "EVQLVESGGGLVQPGGSLRLSCAASGFTFSNYWMSWVRQAPGKGLEWVASIKQDGSEKYYVDSVKGRFAISRDNAKNSLFLQMNSLRAEDTAVYYCARDLVLMVYDIDYYYYGMDVWGQGTTVTVSS", "VL": "[about 100 residues not spelt out]YCMQTLQTPLTFGGGTKVEIK"}},
  "key": {"[1]": {"tested_on": "C57BL/6 mice expressing human PCSK9 by AAV", "assay": "Serum lipids in mice expressing human PCSK9 by AAV (Example 35)", "type": "in vivo, mouse", "conditions": "30 mg/kg IV bolus", "experimental": "Briefly, 120 C57BL/6 mice expressing human PCSK9 were generated by infection with an engineered adeno associated virus (AAV) coding for human PCSK9, resulting in elevated levels of circulating low density lipoprotein cholesterol (LDL-C). Serum cholesterol analysis was performed using the Cobas Integra 400 plus chemistry analyzer (Roche Diagnostics, Indianapolis, Ind.). Animals were randomized into treatment groups with similar levels of non-HDL-C (LDL-C and VLDL-C), HDL-C and TC. On treatment day 0 (T=0) a subset of mice was euthanized and serum collected to establish that day's baseline levels. Remaining mice were then administered 11F1, 8A3 or anti-keyhole limpethemocyanin (KLH) IgG2 control antibody at 30 mg/kg. via tail vein injection. At days 1 through 5 following injection, subsets of mice were euthanized and whole blood was collected from the vena cava and allowed to coagulate for 30 minutes at room temperature. Following centrifugation at 12,000 rpm with a bench top centrifuge for 10 minutes, serum was collected. Serum cholesterol analysis was performed using the Cobas Integra 400 plus chemistry analyzer.\nSerum concentrations of PCSK9 were determined using a sandwich ELISA assay. […] Plates were washed thoroughly with 1×PBS/0.05% tween and then blocked for 2 hours with 3% BSA/1×PBS. After washing, plates were incubated for 2 hours with serum diluted in general assay diluents (Immunochemistry Technologies, Bloomington, Minn.). […] Bound PCSK9 was detected by incubation with TMB substrate. The reaction was stopped with addition of 1N HCl and the absorbance measured at 450 nm on a Spectra Max Plus 384 Spectrophotometer (Molecular Devices Inc, Sunnyvale, Calif.). […]\nAll cholesterol results were expressed as the mean±standard error of the mean. All pharmacokinetic data were expressed as the mean±standard deviation. The p value of 0.05, determined by 1-way ANOVA was used as a threshold to determine statistical significance between the anti-KLH IgG2 control antibody injected animals and those dosed with anti-PCSK9 antibody at the same time point."}, "PCSK9": {"target": "PCSK9 (Homo sapiens, UniProt Q8NBP7)", "sequence (Q8NBP7 153-692)": "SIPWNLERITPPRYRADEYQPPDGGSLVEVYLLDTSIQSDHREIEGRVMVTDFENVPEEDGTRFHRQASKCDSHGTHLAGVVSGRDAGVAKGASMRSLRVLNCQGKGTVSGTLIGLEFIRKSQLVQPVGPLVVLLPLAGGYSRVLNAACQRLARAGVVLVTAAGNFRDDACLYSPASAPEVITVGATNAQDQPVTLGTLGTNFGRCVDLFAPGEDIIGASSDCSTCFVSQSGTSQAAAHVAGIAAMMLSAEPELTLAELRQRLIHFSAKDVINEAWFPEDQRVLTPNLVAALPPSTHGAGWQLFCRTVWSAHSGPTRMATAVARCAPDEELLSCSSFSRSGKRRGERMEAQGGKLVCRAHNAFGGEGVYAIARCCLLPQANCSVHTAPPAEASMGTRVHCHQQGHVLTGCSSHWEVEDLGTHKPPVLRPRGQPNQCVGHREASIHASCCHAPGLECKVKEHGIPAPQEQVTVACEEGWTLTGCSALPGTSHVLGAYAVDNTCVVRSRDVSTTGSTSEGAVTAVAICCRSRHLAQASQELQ", "assay": "11F1 binding specificity competition assay", "set-up": "purchased R&D Systems", "conditions": "0.4 μg/mL 11F1; 0 to 20 μg/mL competitor", "experimental": "Biotinylated PCSK9, diluted in buffer A (25 mM Tris, 150 mM NaCl, 0.1% BSA, 0.05% tween, pH 7.5) was bound to neutravidin coated 96 well plates at a concentration of 0.2 μg/mL, for one hour incubation at room temperature. Separately, 0.4 μg/mL of 11F1 was incubated for one hour at room temperature with various concentrations (ranging from 0 to 20 μg/mL) of either PCSK1, PCSK2, PCSK7, PCSK9 or furin (R&D Systems, Minneapolis, Minn.) (diluted in buffer A w/o tween). Furin inhibitor, at 4.5 μg/mL, was included with all furin containing reactions. The PCSK9 coated streptavidin plate was washed with buffer A and the antibody/proprotein convertase mixture was added to the plate and incubated at room temperature for one hour. After washing, bound antibody was detected by incubation with goat-α-human Fc-HRP (160 ng/mL, diluted in buffer A) (Jackson Laboratories, Bar Harbor, Me.) followed by TMB substrate. The reaction was stopped with 1 N HCl and the absorbance was read at a wavelength of 450 nm on a Spectramax Plus 384 spectrophotometer (Molecular Devices Inc., Sunnyvale, Calif.).\nThis assay relied on the ability of proprotein convertase in solution to compete for the binding of 11F1 to plate-captured PCSK9. […] All results were expressed as the mean OD450 value±standard deviation versus concentration of the proprotein convertase. […]"}},
  "data": [
    {"molecule": "B1", "values": [
      {"measurement": "lowering of HDL-C", "setting": "[1]; any time point", "result": "No significant lowering"},
      {"measurement": "lowering of TC compared to control animals", "setting": "[1]; day 4", "result": 22, "unit": "%"},
      {"measurement": "maximum lowering of serum non-HDL-C compared to control animals", "setting": "[1]; significant at days 1, 2 and 4 post-injection", "result": 59, "unit": "%"},
      {"measurement": "effect of pre-incubation with PCSK9 in solution on 11F1 binding to plate-captured PCSK9 (OD450)", "setting": "PCSK9", "result": "dose dependently and robustly reduced the amount of 11F1 binding to plate-captured PCSK9"}
    ]}
  ]
}
